The record followed here is ChEMBL document CHEMBL4888484, “Replenishing the malaria drug discovery pipeline: Screening and hit evaluation of the MMV Hit Generation Library 1 (HGL1) against asexual blood stage Plasmodium falciparum ,using a nano luciferase reporter read-out” (2022).

About 540 (0.36%) of roughly 150,000 compounds showed an effect of 50% or more. This is one part of the list.

For the assay, the system named is Plasmodium falciparum. Put plainly: Primary screen in NF54 nanoGlo assay, in single point, at 2uM, 72h; a lower Z score goes with more inhibition. Format: functional, Erythrocyte. Particulars: timepoint 72 hour.
For `CC[C@]1(O)CCCN(C(=O)CCCN2CCCC2=O)C1`, the % Inhibition (usually the relative decrease from the control value, in per cent) is reported as -2% and the Z score is listed as 0.36.
Take `C[C@H](Nc1cnn(CC(F)F)c1)c1nc2ccccc2o1`: the “% Inhibition” value was -3% and the Z score is on record as 0.42.
Regarding `O=C(NCc1ccccc1Cl)c1cc(C(=O)NCc2ccccc2Cl)cc(C(=O)NCc2ccccc2Cl)c1`, the “% Inhibition” value is -1% and the Z score is listed as 0.15.
On the same counts, the results for `CC(C)C[C@H](C)S(=O)(=O)Nc1cccc(-c2nncn2C)c1` are -9% and 1.11.
With `CCOCc1ccccc1CNC(=O)CN1CCc2ncnc(OC)c2C1`, the “% Inhibition” value is recorded as -2% and the Z score turned out to be 0.3.
Consider `CC(C)NC(=O)COC(=O)C1=CCCCCC1`, for which the “% Inhibition” value worked out at 21% and the Z score is given as -2.41.
Regarding `Cc1nccc(N2CCCN(CC3CCC3)CC2)n1`, the “% Inhibition” value is -5% and the Z score is 0.59.
For the compound `CC1CCN(c2nc3c(c(Oc4ccc(F)c(F)c4)n2)CN(C(=O)Cc2ccc(F)cc2)CC3)CC1`, the “% Inhibition” value was 1% and the Z score is -0.14.
On to `O=C(Cc1ccc2c(c1)OCO2)N1CC[C@H](N2CCOC2=O)C1`, for which the “% Inhibition” value is given as -10% and the Z score was found to be 1.72.
On to `Cc1ccc2c(c1)CCCN2C(=O)c1cccc(N(C)C)c1`, for which the “% Inhibition” value is reported as 1% and the Z score was -0.14.
In the case of `O=C(NCCc1ccccc1)Nc1cccc(-c2cnc3n2CCC3)c1`, the “% Inhibition” value was -3% and the Z score turned out to be 0.39.
For `CC(=O)Nc1sc2c(c1C(=O)Nc1cccc3ccccc13)CCCC2`, the “% Inhibition” value amounted to 11% and the Z score is recorded as -1.34.
On the same counts, the results for `COC[C@H]1CCCN1S(=O)(=O)NCc1cc2ccccc2[nH]1` are -5% and 0.49.
Regarding `O=C(Cc1nnc(-c2cccs2)o1)NCCc1ccccc1`, the “% Inhibition” value is -14% and the Z score was 1.41.
In the same order, the values of `O=C(NCCc1nnc[nH]1)Nc1c(F)cccc1Oc1ccccc1` are 34% and -3.88.
As for `c1coc(-c2nc3c(c(NCCc4cscn4)n2)CCNCC3)c1`, the “% Inhibition” value was -12% and the Z score is on record as 1.07.
Regarding `CC(NC(=O)CN1CCCC1c1cccs1)c1ccc(F)cc1` (stereo not given), the “% Inhibition” value is listed as -9% and the Z score was 0.96.
As for `COc1ccc(OC)c(-c2ccn(CC(=O)Nc3cn(C)nn3)n2)c1`, the “% Inhibition” value is -12% and the Z score was determined as 1.77.
On the same counts, the results for `Cc1ccc(O)c(-c2nc3c([nH]2)c(-c2ccccc2)nn3C)c1` are -1% and 0.13.
Regarding `O=C(CN1C(=O)C2(OCCO2)c2ccccc21)c1ccccc1`, the “% Inhibition” value is given as -9% and the Z score was 1.17.
On the same counts, the results for `Cc1nnc([C@H](C)NC(=O)c2coc(COc3cccc4cccnc34)n2)o1` are 3% and -0.4.
As for `Cc1ccc(NC(=O)N2CC(CO)(CO)C2)cc1`, the “% Inhibition” value is -1% and the Z score is 0.27.
For the compound `Cc1nc(C(=O)NCc2cccs2)c(C)[nH]1`, the “% Inhibition” value is listed as -16% and the Z score is recorded as 2.09.
On the same counts, the results for `CN(CC1=CCCN(CCNC(N)=O)C1)C(=O)C1CCCCC1` are -3% and 0.37.
With `CCc1nnc2c(=O)n(CC(=O)NCc3cccc(Cl)c3)c3cccnc3n12`, the “% Inhibition” value is -5% and the Z score is on record as 0.63.
Regarding `O=C(Nc1ccccc1C(=O)n1cnc2ccccc21)c1cccnc1O`, the “% Inhibition” value is -12% and the Z score is 1.84.
On the same counts, the results for `O=C1[C@@H](Nc2ncccn2)CCN1c1ccc(F)c(Cl)c1` are -7% and 0.87.
For `Cn1nncc1NC(=O)NC1(C(F)(F)F)CCC1`, the “% Inhibition” value is recorded as 2% and the Z score is reported as -0.3.
Regarding `COc1ccc(CCNC(=O)C2(c3cccc(Cl)c3)CCC2)cc1OC`, the “% Inhibition” value is recorded as -2% and the Z score is listed as 0.21.
As to `Cc1ncc(CN2CC(C)(C)[C@H]2c2ccccc2)n1C`, the “% Inhibition” value is -10% and the Z score is 1.05.
On the same counts, the results for `COc1ccc(Cl)cc1S(=O)(=O)N1CC[C@H](c2ccc3c(c2)OCO3)C1` are 6% and -0.78.
Regarding `CCn1cc(CNc2nnc(C(C)C)s2)cn1`, the “% Inhibition” value is on record as -7% and the Z score is on record as 1.06.
On to `COc1ccc(OC)c(-c2ccnc(-n3ncc(C(=O)N4CCN(C(C)C)CC4)c3C)n2)c1`, for which the “% Inhibition” value is 5% and the Z score is given as -0.69.
As for `CCC(=O)N1CCN(C(=O)Nc2ccc(Cl)cc2)[C@H]2CS(=O)(=O)C[C@H]21`, the “% Inhibition” value is -28% and the Z score is reported as 2.49.
On the same counts, the results for `COc1ccc(CNC(=O)c2ccc(S(=O)(=O)N[C@H]3CCS(=O)(=O)C3)cc2)cc1` are -11% and 2.05.
For the compound `CCOc1ccc(C(C)(C)C(=O)N[C@@H](C)c2ccncc2F)cc1OCC`, the “% Inhibition” value was -9% and the Z score was 1.34.
Regarding `Cc1noc(C(NC(C)Cn2cnc(C)c2C)C(C)C)n1` (stereo not given), the “% Inhibition” value is recorded as -5% and the Z score is reported as 0.52.
For `CN1CCc2cc(-c3nc(C(=O)O)cs3)ccc21`, the “% Inhibition” value is on record as -4% and the Z score came out at 0.85.
In the case of `C=C[C@](C)(CCOC)C(=O)N1Cc2cccc(Br)c2C1`, the “% Inhibition” value was -7% and the Z score was found to be 0.71.
On to `Cc1cc2c(cc1S(=O)(=O)N1CCC[C@H]1C(=O)Nc1cccc(Cl)c1)OCC(=O)N2`, for which the “% Inhibition” value is recorded as -7% and the Z score is listed as 1.4.
For the compound `Cc1csc(NC(=O)C(F)(F)C(F)(F)C(=O)Nc2nc(C)cs2)n1`, the “% Inhibition” value is given as 0% and the Z score was determined as 0.02.
For the compound `Cc1nc(Cn2nnnc2C)sc1C`, the “% Inhibition” value came out at 1% and the Z score was -0.1.
Turning to `Cc1ccc(C)c(N2CCN(Cc3nc(-c4ccc(N5CCCC5)nc4)no3)CC2)c1`, the “% Inhibition” value is recorded as -2% and the Z score was 0.24.
On the same counts, the results for `COCC1(NC(=O)Nc2ccncn2)CCC1` are -4% and 0.68.
For `Cc1ccc(C(=O)N(CCN(C)C)CC(=O)OC(C)(C)C)cn1`, the “% Inhibition” value was -5% and the Z score is listed as 0.99.
For `CCN(CC)CCNC(=O)c1ccc2c(c1)n(Cc1ccccc1)c(=O)c1ccnn12`, the “% Inhibition” value is given as 6% and the Z score is -0.88.
Consider `CCc1nc(C(C)C)ccc1CN1CCC2(CC1)COC(=O)N2`, for which the “% Inhibition” value is listed as -6% and the Z score is listed as 1.
Turning to `Cc1nc(N[C@@H](CO)c2ccc(F)cc2F)c2c(C)csc2n1`, the “% Inhibition” value was -5% and the Z score is on record as 0.94.
As to `CCN1CCO[C@@H](CNCc2c(C)nn(C)c2Cl)C1`, the “% Inhibition” value is reported as -5% and the Z score is listed as 0.67.
Consider `O=C(NC[C@H](C(=O)O)C1CCCCC1)c1cccc(C(F)F)c1`, for which the “% Inhibition” value was -16% and the Z score is 1.97.
With `Cc1cnc(C2CC2)n1[C@H]1CCCN(S(=O)(=O)C(C)C)C1`, the “% Inhibition” value is given as 0% and the Z score is listed as 0.01.
As for `O=S(=O)(c1c(Cl)cccc1Cl)N1CCC[C@H]1c1nc2ccccc2s1`, the “% Inhibition” value was -3% and the Z score was 0.51.
Consider `Fc1ccc2ncnc(N3CCc4c(F)ccc(F)c4C3)c2c1`, for which the “% Inhibition” value is given as -12% and the Z score stood at 1.52.
On to `COC1(C)CC(NC(=O)CCCc2nccs2)C1(C)C` (stereo not given), for which the “% Inhibition” value was -5% and the Z score amounted to 0.6.
As for `O=C1OC(C(=O)NC2CCS(=O)(=O)C2)Cc2ccccc21` (stereo not given), the “% Inhibition” value is -10% and the Z score turned out to be 1.95.
